Test results: the supplement of paper PMC8728848
Some of the results follow.

Columns and labels:
Assay in all cases: glycan array binding signal (z-score within array); higher = stronger binding
Details in all cases: glycan notation: IUPAC condensed, linker removed
Fuc(a1-2)Gal = target: Fuc(a1-2)Gal
Procedure, shortened: (§1)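 The Consortium for Functional Glycomics database supplied 3228 glycan arrays, of which those lacking an available protein sequence were dropped. The binding signal, a within-array Z-score, was averaged across arrays of the same protein sequence and across linkers. Negative scores can be read as non-binding.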

Fuc(a1-2)Gal(b1-3)GalNAc = target: Fuc(a1-2)Gal(b1-3)GalNAc
Procedure, shortened: as §1

[1] = target: Fuc(a1-2)Gal(b1-3)GalNAc(a1-3)[Fuc(a1-2)]Gal(b1-4)Glc
Procedure, shortened: as §1

[2] = target: Fuc(a1-2)Gal(b1-3)GalNAc(a1-3)[Fuc(a1-2)]Gal(b1-4)GlcNAc
Procedure, shortened: as §1

[3] = target: Fuc(a1-2)Gal(b1-3)GalNAc(b1-3)Gal
Procedure, shortened: as §1

[4] = target: Fuc(a1-2)Gal(b1-3)GalNAc(b1-3)Gal(a1-4)Gal(b1-4)Glc
Procedure, shortened: as §1

[5] = target: Fuc(a1-2)Gal(b1-3)GalNAc(b1-4)[Neu5Ac(a2-3)]Gal(b1-4)Glc
Procedure, shortened: as §1

Fuc(a1-2)Gal(b1-3)GlcNAc = target: Fuc(a1-2)Gal(b1-3)GlcNAc
Procedure, shortened: as §1

[6] = target: Fuc(a1-2)Gal(b1-3)GlcNAc(b1-2)Man(a1-3)[Fuc(a1-2)Gal(b1-3)GlcNAc(b1-2)Man(a1-6)]Man(b1-4)GlcNAc(b1-4)GlcNAc
Procedure, shortened: as §1

[7] = target: Fuc(a1-2)Gal(b1-3)GlcNAc(b1-2)Man(a1-3)[Fuc(a1-2)Gal(b1-3)GlcNAc(b1-2)Man(a1-6)]Man(b1-4)GlcNAc(b1-4)[Fuc(a1-6)]GlcNAc
Procedure, shortened: as §1

[8] = target: Fuc(a1-2)Gal(b1-3)GlcNAc(b1-3)Gal(b1-4)Glc
Procedure, shortened: as §1

[9] = target: Fuc(a1-2)Gal(b1-3)GlcNAc(b1-3)GalNAc
Procedure, shortened: as §1

[10] = target: Fuc(a1-2)Gal(b1-3)GlcNAc(b1-3)[Fuc(a1-2)Gal(b1-3)GlcNAc(b1-6)]GalNAc
Procedure, shortened: as §1

[11] = target: Fuc(a1-2)Gal(b1-3)GlcNAc(b1-3)[Gal(b1-4)GlcNAc(b1-6)]Gal(b1-4)Glc
Procedure, shortened: as §1

[12] = target: Fuc(a1-2)Gal(b1-3)GlcNAc(b1-3)[Neu5Ac(a2-6)Gal(b1-4)GlcNAc(b1-6)]Gal(b1-4)Glc
Procedure, shortened: as §1

[13] = target: Fuc(a1-2)Gal(b1-3)GlcNAc6S
Procedure, shortened: as §1

[14] = target: Fuc(a1-2)Gal(b1-3)[Fuc(a1-4)]GlcNAc
Procedure, shortened: as §1

[15] = target: Fuc(a1-2)Gal(b1-3)[Fuc(a1-4)]GlcNAc(b1-2)Man(a1-3)[Fuc(a1-2)Gal(b1-3)[Fuc(a1-4)]GlcNAc(b1-2)Man(a1-3)]Man(b1-4)GlcNAc(b1-4)GlcNAc
Procedure, shortened: as §1

[16] = target: Fuc(a1-2)Gal(b1-3)[Fuc(a1-4)]GlcNAc(b1-2)Man(a1-3)[Fuc(a1-2)Gal(b1-3)[Fuc(a1-4)]GlcNAc(b1-2)Man(a1-6)]Man(b1-4)GlcNAc(b1-4)[Fuc(a1-6)]GlcNAc(b1-4)[Fuc(a1-6)]GlcNAc
Procedure, shortened: as §1

[17] = target: Fuc(a1-2)Gal(b1-3)[Fuc(a1-4)]GlcNAc(b1-3)[Fuc(a1-3)[Gal(b1-4)]GlcNAc(b1-6)]Gal(b1-4)Glc
Procedure, shortened: as §1

[18] = target: Fuc(a1-2)Gal(b1-3)[Fuc(a1-4)]GlcNAc(b1-3)[Gal(b1-4)GlcNAc(b1-6)]Gal(b1-4)Glc
Procedure, shortened: as §1

[19] = target: Fuc(a1-2)Gal(b1-4)Fuc(a1-3)]GlcNAc(b1-2)Man(a1-3)[Fuc(a1-2)Gal(b1-4)[Fuc(a1-3)]GlcNAc(b1-2)Man(a1-6)]Man(b1-4)GlcNAc(b1-4)GlcNAc
Procedure, shortened: as §1

Fuc(a1-2)Gal(b1-4)Glc = target: Fuc(a1-2)Gal(b1-4)Glc
Procedure, shortened: as §1

Fuc(a1-2)Gal(b1-4)Glc6S = target: Fuc(a1-2)Gal(b1-4)Glc6S
Procedure, shortened: as §1

Fuc(a1-2)Gal(b1-4)GlcNAc = target: Fuc(a1-2)Gal(b1-4)GlcNAc
Procedure, shortened: as §1

[20] = target: Fuc(a1-2)Gal(b1-4)GlcNAc(b1-2)Man
Procedure, shortened: as §1

[21] = target: Fuc(a1-2)Gal(b1-4)GlcNAc(b1-2)Man(a1-3)[Fuc(a1-2)Gal(b1-4)GlcNAc(b1-2)Man(a1-6)]Man(b1-4)GlcNAc(b1-4)GlcNAc
Procedure, shortened: as §1

[22] = target: Fuc(a1-2)Gal(b1-4)GlcNAc(b1-2)Man(a1-3)[Fuc(a1-2)Gal(b1-4)GlcNAc(b1-2)Man(a1-6)]Man(b1-4)GlcNAc(b1-4)[Fuc(a1-6)]GlcNAc
Procedure, shortened: as §1

[23] = target: Fuc(a1-2)Gal(b1-4)GlcNAc(b1-2)[Fuc(a1-2)Gal(b1-4)GlcNAc(b1-4)]Man(a1-3)[Fuc(a1-2)Gal(b1-4)GlcNAc(b1-2)Man(a1-6)]Man(b1-4)GlcNAc(b1-4)GlcNAc
Procedure, shortened: as §1

[24] = target: Fuc(a1-2)Gal(b1-4)GlcNAc(b1-3)Gal(b1-4)GlcNAc
Procedure, shortened: as §1

B1: Epa23 (Candida glabrata) (protein)
chain: MGSSHHHHHHSSGLVPRGSHMIPNPFEGTINNFPSGCSPNHGLYNRGLTMELYNYSYIHPQSIQSYFNTSTLKKMEKGQCWDPSYLDVNYPRTGYKTHNRFAKVNGIDGILDFEFNPTRSCVPSKGQLPQNYNYPLQFTLSNFTMLLYGYFKPKVTAKHTFTIFADDLLFLNFGAGNAFDCCQQQDTIDDFGNYQAYALWGSDTQQNTLTVNLDANIYYPIRMFYNNRDFKGALNMYFTTDESNTKINDFSGYLFNIPDSSEGCPAHISYETECGNVSG
- glycan array binding signal (z-score) (Fuc(a1-2)Gal): -0.243
- glycan array binding signal (z-score) (Fuc(a1-2)Gal(b1-3)GalNAc): -0.187
- glycan array binding signal (z-score) [1]: -0.202
- glycan array binding signal (z-score) [2]: -0.246
- glycan array binding signal (z-score) [3]: -0.17
- glycan array binding signal (z-score) [4]: -0.194
- glycan array binding signal (z-score) [5]: -0.222
- glycan array binding signal (z-score) (Fuc(a1-2)Gal(b1-3)GlcNAc): -0.257
- glycan array binding signal (z-score) [6]: -0.224
- glycan array binding signal (z-score) [7]: -0.222
- glycan array binding signal (z-score) [8]: -0.232
- glycan array binding signal (z-score) [9]: -0.236
- glycan array binding signal (z-score) [10]: -0.245
- glycan array binding signal (z-score) [11]: -0.156
- glycan array binding signal (z-score) [12]: -0.286
- glycan array binding signal (z-score) [13]: -0.221
- glycan array binding signal (z-score) [14]: -0.18
- glycan array binding signal (z-score) [15]: -0.226
- glycan array binding signal (z-score) [16]: -0.257
- glycan array binding signal (z-score) [17]: -1.05
- glycan array binding signal (z-score) [18]: -0.129
- glycan array binding signal (z-score) [19]: -0.116
- glycan array binding signal (z-score) (Fuc(a1-2)Gal(b1-4)Glc): -0.201
- glycan array binding signal (z-score) (Fuc(a1-2)Gal(b1-4)Glc6S): -0.197
- glycan array binding signal (z-score) (Fuc(a1-2)Gal(b1-4)GlcNAc): -0.214
- glycan array binding signal (z-score) [20]: -0.282
- glycan array binding signal (z-score) [21]: -0.246
- glycan array binding signal (z-score) [22]: -0.157
- glycan array binding signal (z-score) [23]: -0.287
- glycan array binding signal (z-score) [24]: -0.239
